Test results as given in PubChem BioAssay (NCI).
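Grown in 96-well plates, cells were treated for 48 hours with each compound at five concentrations. Insufficient inhibition: endpoint recorded as highest concentration tested. At the GI50, growth is halved. TGI denotes the concentration required for complete inhibition of growth.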

What follows are molecules tested on NCI-H322M lung (assay: growth of human tumour cells (NCI), 48 h).
For `C[C@]12CC[C@@H]3c4ccc(OP(=O)(O)O)cc4CC[C@H]3[C@@H]1CCC2=O`, the TGI was greater than 100 µM. `C#CCOCn1cnc2c(Cl)ncnc21` showed a TGI greater than 100 µM. For `COc1ccc2oc(=N)c(C(=O)NCc3ccccc3)cc2c1`, the TGI was greater than 100 µM. `O=C1c2c(ccc3c2CCCC3)CC12Cc1ccc3c(c1C2=O)CCCC3` gave a TGI greater than 100 µM. With `COc1ccc(/C=C2\C(=O)N(C3OC(COC(C)=O)C(OC(C)=O)C(OC(C)=O)C3OC(C)=O)c3ccccc3N=C2N)cc1` (configuration not stated) the TGI was greater than 100 µM. For `Nn1c(NNC(=O)C(=O)Nc2cc(Cl)c(Cl)cc2Cl)n[nH]c1=S`, the TGI was greater than 100 µM. Work on `O=C(CCC(NC(=O)OCc1ccccc1)C(=O)OCc1ccccc1)Nc1ccc(OCc2ccccc2)cc1` (configuration not stated) yielded a TGI greater than 31.6 µM. `COc1ccc2c(c1)cn1c3ccc(O)cc3nc(N)c21` showed a GI50 of 977 nM and a TGI of 11.5 µM. With `CN(C)CCCNC(CC#N)CCC#N` (configuration not stated) the TGI was greater than 10 µM. `Cn1cnc(CCc2ccccc2)n1` gave a TGI greater than 100 µM. `Nc1ncnc2ccc(Sc3ccc4ncnc(N)c4c3)cc12` was tested, and the TGI was greater than 100 µM. `Cc1ccc(NC(=O)C(=O)C(C#N)c2ccccc2C)cc1C` (configuration not stated) gave a TGI greater than 100 µM. Molecule `O=C(/C=C/c1ccccc1)c1cc(Br)ccc1O` has a TGI of 35.6 µM. For `O=[N+]([O-])C1C2C=CC(C2)[C@H]1c1ccco1` (some centres not stated), the TGI was greater than 100 µM. Work on `CCCCCCCCCCC(C(=O)O)C1(C(=O)O)CCC(=O)O1` (configuration not stated) yielded a TGI greater than 100 µM. Molecule `COc1cc(OC)c2c(c1)C(=O)C(CC(C)O)=CC2=O` (configuration not stated) has a TGI of 31.3 µM. Molecule `COC(=O)[C@H](C[C@H](Cc1ccccc1)NC(=O)c1csc([C@@H](C[C@H](C(C)C)N(C)C(=O)[C@@H](NC(=O)[C@H]2CCCCN2C)C(C)C)OC(C)=O)n1)NC(=O)OCc1ccccc1` has a GI50 of 2.27 nM and a TGI greater than 9 µM. Molecule `O=C(NCCO)Nc1ccc(-c2nc(N3CCOCC3)c3cccn3n2)cc1` has a GI50 of 106 nM and a TGI of 47 µM. Work on `CCCNC(=O)c1cc(NC(=O)c2cc(NC(=O)/C=C/c3ccccc3)c(OC)c(OC)c2)c(OC)c(OC)c1` yielded a TGI of 31.3 µM. `C=CCC[CH2][Sn]([c]1ccccc1)([c]1ccccc1)[c]1ccccc1` was tested, and the GI50 was 1560 nM and the TGI was 3.29 µM. With `CN(C)CC(=O)Nc1ccc(Cn2nnc3c2C(=O)c2nnn(Cc4ccc(NC(=O)CN(C)C)cc4)c2C3=O)cc1` the GI50 was 224 nM and the TGI was 0.935 µM. Work on `c1ccc([P+](Cc2ccc(C[P+](c3ccccc3)(c3ccccc3)c3ccccc3)cc2)(c2ccccc2)c2ccccc2)cc1` yielded a TGI greater than 100 µM. Molecule `CCc1nccc2c1nc(-c1nonc1N)n2CC` has a GI50 of 16500 nM and a TGI greater than 25 µM. Molecule `CCOC(=O)N/N=C(/OCC)c1ccccc1` has a TGI greater than 100 µM. `COC(=O)C(CC12CC3CC(CC(C3)C1)C2)NC(=O)C(N)CC(=O)O` (configuration not stated) was tested, and the TGI was greater than 100 µM. `CN1CC[C@@]2(c3cccc(O)c3)CC(=O)/C(=C/c3ccccc3)[C@H]1C2` gave a TGI of 34.1 µM. In the case of `CC[C@H]1C=CCC[C@@]2(C[C@@H]3CC[C@@H]4[C@H](C(=O)OCCCCCCCCCCCCCCCC(=O)O)[C@]5(CCC[C@@H](C)O5)NC(=[N+]34)N2)O1`, the TGI is reported as 8.06 µM. Molecule `CC(=O)N1C(c2[nH]c3ccccc3c2-c2ccccc2)CCN1c1ccccc1` (configuration not stated) has a TGI greater than 10 µM. In the case of `CCOC(=O)c1c2c(n3ccccc13)C(=O)c1ccccc1C2=O`, the TGI is reported as 7.22 µM. `CC(NNC(=O)c1ccncc1)c1ccc(F)cc1` (configuration not stated) showed a TGI greater than 100 µM. For `NC(=O)NNc1nc2ccccc2c(=O)n1NC(=O)C(=O)Nc1ccc(Cl)cc1Cl`, the TGI was greater than 100 µM. `N=c1oc2c(Cl)cc(Cl)cc2cc1C(=O)Nc1cccc2ccccc12` gave a TGI of 56.3 µM. `CC[C@@H](C(=O)O)C1CC[C@H](C)C([C@@H](C)[C@H](O)[C@H](C)C(=O)[C@H](CC)C2O[C@]3(C=C[C@@H](O)[C@]4(CC[C@@](C)(C5CC[C@](O)(CC)[C@H](C)O5)O4)O3)[C@H](C)C[C@@H]2C)O1` (some centres not stated) gave a GI50 of 1990 nM and a TGI of 14.4 µM. Work on `COc1cccc2c1c(C(=O)C(=O)Nc1cc(C)no1)cn2Cc1ccc(F)cc1` yielded a GI50 of 27200 nM and a TGI greater than 100 µM. With `ONc1ncnc2nc[nH]c12` the TGI was greater than 100 µM. `COc1ccc2sc3c(NCCCN(C)C)nc4ccccc4c3c(=O)c2c1` gave a GI50 of 1670 nM and a TGI of 3.08 µM. `O=C1c2cccnc2C(=O)c2nc3cc(N4CCN(C5CC5)CC4)ccc3nc21` gave a GI50 of 285 nM and a TGI of 1.04 µM. With `CCOC(=O)C1=[N+]([O-])OC2=C(O)CCCC21` (configuration not stated) the TGI was greater than 100 µM. `O=S(=O)(O)c1ccc2cccc(N=Nc3c(O)ccc4ccccc34)c2c1` was tested, and the TGI was greater than 100 µM. For `COc1ccc(-c2nn3c(-c4cc(F)c(Cl)cc4Cl)nnc3s2)cc1`, the GI50 was 77800 nM and the TGI was greater than 100 µM. In the case of `NC(=O)N=C(N(Cc1ccccc1)Cc1ccccc1)N(Cc1ccccc1)Cc1ccccc1`, the TGI is reported as greater than 100 µM. Molecule `O=[N+]([O-])C(C(Cl)=C(Cl)Cl)=C(N(Cc1ccccc1)Cc1ccccc1)N(Cc1ccccc1)Cc1ccccc1` has a TGI greater than 100 µM. With `Cc1csc(=S)n1OC(=O)NC1CCCCC1` the TGI was greater than 100 µM. In the case of `CCS(=O)(=O)Nc1ccc(Nc2c3ccccc3nc3ccccc23)c(OC)c1`, the TGI is reported as 17 µM. In the case of `O=c1/c(=C/c2ccccc2F)sc2nc3ccccc3n12`, the TGI is reported as greater than 100 µM. For `CC1SC2=NC3=C(c4ccccc4C3=O)C(c3ccc(F)cc3)N2C1=O` (configuration not stated), the TGI was greater than 100 µM. `C[C@@H]1C[C@H]2CC[C@H](O2)[C@H](C)C(=O)O[C@@H](C)C[C@@H]2CC[C@@H](O2)[C@@H](C)C(=O)O[C@H](C)C[C@H]2CC[C@H](O2)[C@H](C)C(=O)O[C@@H](C)C[C@@H]2CC[C@@H](O2)[C@@H](C)C(=O)O1` gave a TGI greater than 30.6 µM. For `O=[N+]([O-])c1ccc(-c2csc3nc(-c4ccccc4)nn23)cc1`, the TGI was greater than 100 µM. For `CC12CCC(CC1=O)C2(C)CCC(N)=O` (configuration not stated), the TGI was greater than 100 µM. In the case of `COC(C(=O)[O][Ge]([CH3])([CH3])[CH3])c1ccccc1` (configuration not stated), the GI50 is reported as greater than 100000 nM and the TGI is reported as greater than 100 µM.
